Assay results as given in publication PMC4336329 (PLoS ONE, 2015).
Out of some 310,000 compounds screened, about 2,200 (0.71%) showed an effect of 50% or more. Effects have a minus sign here. The list shows a part of the results.

target: human ether-à-go-go-related gene (hERG) potassium channel (human, UniProt Q12809); assay: primary screen, population patch clamp on CHO cells stably expressing hERG
Sequence (Q12809 whole entry, looked up): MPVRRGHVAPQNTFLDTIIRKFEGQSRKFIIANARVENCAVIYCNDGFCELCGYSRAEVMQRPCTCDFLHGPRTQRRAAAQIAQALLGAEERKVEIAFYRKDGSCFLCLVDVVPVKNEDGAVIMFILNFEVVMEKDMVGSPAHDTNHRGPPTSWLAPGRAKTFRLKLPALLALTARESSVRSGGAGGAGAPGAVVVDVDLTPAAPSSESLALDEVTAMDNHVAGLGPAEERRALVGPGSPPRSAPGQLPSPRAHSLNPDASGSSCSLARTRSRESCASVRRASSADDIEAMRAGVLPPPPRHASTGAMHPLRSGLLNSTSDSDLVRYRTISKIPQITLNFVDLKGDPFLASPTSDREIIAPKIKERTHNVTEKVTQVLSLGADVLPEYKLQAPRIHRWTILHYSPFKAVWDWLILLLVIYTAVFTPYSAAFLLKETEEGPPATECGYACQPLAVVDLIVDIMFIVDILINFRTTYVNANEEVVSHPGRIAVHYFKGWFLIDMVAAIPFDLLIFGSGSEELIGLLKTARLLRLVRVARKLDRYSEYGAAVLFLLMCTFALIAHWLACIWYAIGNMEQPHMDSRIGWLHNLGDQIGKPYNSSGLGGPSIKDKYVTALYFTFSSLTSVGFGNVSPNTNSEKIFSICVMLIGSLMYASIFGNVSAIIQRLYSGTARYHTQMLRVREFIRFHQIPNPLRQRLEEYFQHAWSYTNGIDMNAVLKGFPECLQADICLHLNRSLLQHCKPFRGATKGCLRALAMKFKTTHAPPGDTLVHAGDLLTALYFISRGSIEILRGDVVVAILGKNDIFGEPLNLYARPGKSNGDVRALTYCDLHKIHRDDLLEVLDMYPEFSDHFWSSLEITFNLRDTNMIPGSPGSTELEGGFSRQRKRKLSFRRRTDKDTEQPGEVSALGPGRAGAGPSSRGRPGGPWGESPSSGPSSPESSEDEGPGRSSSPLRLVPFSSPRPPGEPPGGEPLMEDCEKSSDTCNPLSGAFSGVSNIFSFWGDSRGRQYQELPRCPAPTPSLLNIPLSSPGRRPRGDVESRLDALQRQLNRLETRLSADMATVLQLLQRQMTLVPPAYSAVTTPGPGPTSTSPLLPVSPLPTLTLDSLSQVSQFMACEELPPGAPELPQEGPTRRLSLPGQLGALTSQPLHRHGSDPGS

SMILES | hERG current change (%, negative = inhibition) at 1uM
COc1ccc(C)cc1NC(=O)CN1C(=O)COc2ccc(C)cc21 | 19.8%
Cn1c(SCc2cccc3ccccc23)nnc1-c1ccco1 | 5.48%
C=CCn1c(=O)c2ccccc2n2c(SCC(=O)N3CCCc4ccccc43)nnc12 | 4.03%
CCCCC(c1nnnn1CCOC)N1CCN(C)CC1.Cl (stereo not drawn) | 7.55%
NC(=O)C(c1ccc(Cl)cc1)c1ccc(Sc2ccccc2)nn1 (stereo not drawn) | 4.5%
COc1cc(C(C2C(=O)CC(C)(C)CC2=O)C2C(=O)CC(C)(C)CC2=O)ccc1O | 8.07%
CCOC(=O)c1c(CN(C)C)n(-c2ccccc2)c2cc(Br)c(O)cc12.Cl | -37.2%
O=c1[nH]c(SCc2n[nH]c(=S)n2-c2ccccc2)nc2ccccc12 | 13.3%
O=C1c2cccc3cccc(c23)C(=O)N1c1nccs1 | 0.0267%
CC(C)(C)OC(=O)NCc1ccc(CNC(=O)c2[nH]cnc2C(=O)N[C@@H](Cc2ccccc2)C(=O)OCc2ccccc2)cc1 | -0.608%
Cn1nc(C(F)(F)F)c(C#N)c1N1CCN(c2ccccc2)CC1 | -9.29%
COc1ccc(C(=O)Cn2nc(CNc3ccc(Br)cc3)[n+]3c2CCCCC3)cc1.[Br-] | 12.1%
O=S(=O)(c1ccccc1)N1CCN(CCc2ccccc2)CC1 | 9.11%
CC(C)c1ccc(NC(=O)CCNS(=O)(=O)c2ccc3[nH]c(=O)oc3c2)cc1 | 16.5%
O=C(NCCc1cccc(Cl)c1)c1cc2ccccc2oc1=O | 12.5%
O=C(O)c1cccc(NC(=S)NC(=O)c2ccc(-c3ccc(Cl)cc3)o2)c1 | 14.9%
O=C(COC(=O)c1cc([N+](=O)[O-])ccc1N1CCOCC1)NC1CCCCC1 | -6.8%
CC(C(=O)NCC1(c2ccccc2)CCOCC1)N1CCOCC1.Cl (stereo not drawn) | 25.4%
O=C(NCCCc1ccccc1)c1ccncc1 | -4.47%
CCn1c(SCC(=O)NCc2ccco2)nc2c(c1=O)SC(C)C2 (stereo not drawn) | 5.05%
CC(OC(=O)CNC(=O)c1sc2ccccc2c1Cl)C(=O)NC1(C#N)CCCCC1 (stereo not drawn) | 12.2%
O=C(NC(=S)Nc1ncccn1)c1ccccc1Cl | 12.7%
O=C(NCCc1c[nH]c2ccccc12)C(F)(F)F | 13.6%
Cc1ccc(S(=O)(=O)CCC(=O)NCCc2ccccc2)cc1 | 12.2%
